Columns and labels:
Conditions in all cases: Fluoribacter gormanii
[1] = substrate: CO[C@@]1(NC(=O)C(C(=O)O)c2ccsc2)C(=O)N2[C@@H](C(=O)O)C(C)(C)S[C@@H]21; test: (§1) Ratio of Kcat to Km for Legionella gormanii ATCC 33297T beta-Lactamase FEZ-1
[2] = substrate: CO/N=C(\C(=O)N[C@@H]1C(=O)N2C(C(=O)O)=C(COC(N)=O)CS[C@H]12)c1ccco1; test: as §1
[3] = substrate: CC(C)(O/N=C(\C(=O)N[C@@H]1C(=O)N2C(C(=O)[O-])=C(C[n+]3ccccc3)CS[C@H]12)c1csc(N)n1)C(=O)O; test: as §1
[4] = substrate: CCN1CCN(C(=O)N[C@@H](C(=O)N[C@@H]2C(=O)N3[C@@H]2SC(C)(C)[C@@H]3C(=O)O)c2ccccc2)C(=O)C1=O; test: as §1
[5] = substrate: CC1(C)S[C@@H]2[C@H](NC(=O)[C@H](C(=O)O)c3ccsc3)C(=O)N2[C@H]1C(=O)O; test: as §1
[6] = substrate: CO[C@@]1(NC(=O)Cc2cccs2)C(=O)N2C(C(=O)O)=C(COC(N)=O)CS[C@@H]21; test: as §1
[7] = substrate: CO/N=C(\C(=O)N[C@@H]1C(=O)N2C(C(=O)[O-])=C(C[N+]3(C)CCCC3)CS[C@H]12)c1csc(N)n1; test: as §1
[8] = substrate: CC1(C)S[C@@H]2[C@H](NC(=O)[C@H](N)c3ccccc3)C(=O)N2[C@H]1C(=O)O; test: as §1
[9] = substrate: CC(=O)OCC1=C(C(=O)O)N2C(=O)[C@@H](NC(=O)Cc3cccs3)[C@H]2SC1; test: as §1
[10] = substrate: CC1(C)S[C@@H]2[C@H](NC(=O)Cc3ccccc3)C(=O)N2[C@H]1C(=O)O; test: as §1
[11] = substrate: CO/N=C(\C(=O)N[C@@H]1C(=O)N2C(C(=O)O)=C(COC(C)=O)CS[C@H]12)c1csc(N)n1; test: as §1

B1: FEZ-1 protein (Fluoribacter gormanii), Q9K578 (protein)
chain: MKKVLSLTALMMVLNHSSFAYPMPNPFPPFRIAGNLYYVGTDDLASYLIVTPRGNILINSDLEANVPMIKASIKKLGFKFSDTKILLISHAHFDHAAGSELIKQQTKAKYMVMDEDVSVILSGGKSDFHYANDSSTYFTQSTVDKVLHDGERVELGGTVLTAHLTPGHTRGCTTWTMKLKDHGKQYQAVIIGSIGVNPGYKLVDNITYPKIAEDYKHSIKVLESMRCDIFLGSHAGMFDLKNKYVLLQKGQNNPFVDPTGCKNYIEQKANDFYTELKKQETA
kcat/Km [1]: 1.3 ×10⁴ /M/s
kcat/Km [2]: 6.6 ×10⁶ /M/s
kcat/Km [3]: 4 ×10³ /M/s
kcat/Km [4]: 1.2 ×10⁴ /M/s
kcat/Km [5]: 1.3 ×10⁴ /M/s
kcat/Km [6]: 2.7 ×10⁵ /M/s
kcat/Km [7]: 6 ×10³ /M/s
kcat/Km [8]: 1.1 ×10⁴ /M/s
kcat/Km [9]: 2.5 ×10⁶ /M/s
kcat/Km [10]: 1.1 ×10⁵ /M/s
kcat/Km [11]: 2.4 ×10⁶ /M/s

From ChEMBL document CHEMBL1275443, “Functional diversity among metallo-beta-lactamases: characterization of the CAR-1 enzyme of Erwinia carotovora” (2008)
